About 2,200 (0.71%) of roughly 310,000 compounds showed an effect of 50% or more. The effect is printed as a negative number. The list shows a part of the results.
molecular target: human ether-à-go-go-related gene (hERG) potassium channel (human, UniProt Q12809); experiment: primary screen, population patch clamp on CHO cells stably expressing hERG
Sequence (Q12809 whole entry, looked up): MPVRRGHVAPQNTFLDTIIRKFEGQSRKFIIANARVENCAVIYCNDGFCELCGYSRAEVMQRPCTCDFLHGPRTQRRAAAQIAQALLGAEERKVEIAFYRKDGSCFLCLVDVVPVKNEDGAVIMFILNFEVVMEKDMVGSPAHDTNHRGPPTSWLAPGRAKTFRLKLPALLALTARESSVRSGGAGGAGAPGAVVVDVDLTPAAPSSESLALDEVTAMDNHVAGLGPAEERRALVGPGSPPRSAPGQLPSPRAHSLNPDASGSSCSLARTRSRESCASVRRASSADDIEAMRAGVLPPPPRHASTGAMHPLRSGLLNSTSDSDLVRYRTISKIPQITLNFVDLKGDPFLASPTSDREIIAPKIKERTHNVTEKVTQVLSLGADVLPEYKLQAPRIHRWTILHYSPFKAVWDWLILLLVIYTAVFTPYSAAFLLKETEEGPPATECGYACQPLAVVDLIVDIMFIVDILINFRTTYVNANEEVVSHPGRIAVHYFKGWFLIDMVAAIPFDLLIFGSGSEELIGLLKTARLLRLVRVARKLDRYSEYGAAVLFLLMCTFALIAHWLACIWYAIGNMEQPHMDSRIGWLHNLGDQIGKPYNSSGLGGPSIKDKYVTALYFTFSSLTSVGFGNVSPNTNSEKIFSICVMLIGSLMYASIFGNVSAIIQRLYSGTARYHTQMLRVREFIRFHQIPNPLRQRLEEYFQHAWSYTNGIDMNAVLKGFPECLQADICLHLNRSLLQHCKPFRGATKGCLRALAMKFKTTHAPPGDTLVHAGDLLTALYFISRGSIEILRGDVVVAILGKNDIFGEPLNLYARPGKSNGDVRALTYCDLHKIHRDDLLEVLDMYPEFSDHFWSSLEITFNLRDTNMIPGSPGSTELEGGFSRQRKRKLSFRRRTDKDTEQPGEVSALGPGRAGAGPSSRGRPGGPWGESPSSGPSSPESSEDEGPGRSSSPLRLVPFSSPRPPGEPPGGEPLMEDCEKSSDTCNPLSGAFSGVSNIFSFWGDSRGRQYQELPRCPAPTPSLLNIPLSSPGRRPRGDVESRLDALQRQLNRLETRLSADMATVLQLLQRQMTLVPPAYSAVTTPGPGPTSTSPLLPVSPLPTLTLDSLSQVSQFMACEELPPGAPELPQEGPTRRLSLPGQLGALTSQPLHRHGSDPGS

| Structure (SMILES) | hERG current change (%, negative = inhibition) at 1uM |
| --- | --- |
| CC1(C)CC(=O)C(C=NCC2CCN(C(=S)Nc3cccc(Cl)c3)CC2)=C(O)C1 | -8.16% |
| CC(NC(=O)c1cc(-c2cccs2)on1)c1ccccc1 (stereo not drawn) | 15.3% |
| CCOC(=O)C(=O)Nc1ccccc1C(N)=O | -8.85% |
| CCn1c(SCC(=O)N/N=C/C=C/c2ccccc2[N+](=O)[O-])nnc1-c1ccccc1 | 7.15% |
| CCCCNC(=S)Nc1ccc2[nH]c(=O)[nH]c2c1 | 6.39% |
| Cc1c(C(=O)Nc2ccc(C(=O)Nc3ccccc3)cc2)cccc1[N+](=O)[O-] | 21% |
| COc1ccc(-n2c(Cc3cccn3C)nnc2SCC(=O)Nc2cc(C)cc(C)c2)cc1 | -33.3% |
| COc1ccccc1S(=O)Cc1ccc(C(=O)NCCc2ccc(Cl)cc2)o1 (stereo not drawn) | -26.3% |
| CN1CCN(Cc2cc(=O)oc3cc4c(cc23)CCC4)CC1 | 3.09% |
| Cn1c(=O)n(C)c2cc(NC(=O)CCc3ccccc3)c(Br)cc21 | 12.8% |
| O=C(COC(=O)c1ccc2c(c1)OCO2)NCc1ccc(Cl)cc1 | 6.6% |
| CCN1CCN(c2ccc(S(=O)(=O)N3CCCCC3)cc2NC(=O)C(C)Oc2ccc(F)cc2)CC1 (stereo not drawn) | -13.9% |
| COc1ccc(CCn2c(O)c(C=Nc3ccc(F)cc3)c(=O)[nH]c2=O)cc1OC | 2.52% |
| Cc1ccccc1NC(=O)OCCN1CCN(Cc2ccccc2)CCC1=O | 8.86% |
| O=C(NCc1ccccn1)C1CCN(S(=O)(=O)c2cccs2)CC1 | -9.76% |
| CCS(=O)(=O)C1=NN2C(=N)/C(=C\c3ccc(OC(=O)c4ccco4)c(Br)c3)C(=O)N=C2S1 | 12.6% |
| Cc1cc(C)n2nc(C(=O)OCC(=O)c3ccc(F)cc3)nc2n1 | 9.39% |
| COc1cccc(OC)c1C(=O)Nc1nc(-c2ccccc2)cs1 | 7.23% |
| OCCC1CN(Cc2nc(-c3ccccc3)cs2)CCN1CCc1ccccc1 (stereo not drawn) | -42.8% |
| O=C(CN1CCC(NC(=O)Nc2ccccc2)CC1)Nc1ccccc1F | 3.31% |
| Cc1ccccc1S(=O)(=O)Cc1ccc(C(=O)NC(C)c2ccccc2)o1 (stereo not drawn) | 28.3% |
| COCCN(C(=O)CNC(=O)c1cccs1)C(C(=O)NC1CCCCC1)c1ccco1 (stereo not drawn) | -4.92% |
| Cc1cc2c(=O)n(C)c(SCC(=O)c3cc4ccccc4o3)nc2s1 | 12.8% |

| Structure (SMILES) | hERG current change (%, negative = inhibition) at 1uM |
| --- | --- |
| COc1ccc(-c2nnc(NC(=O)Cc3ccccc3)s2)c(OC)c1 | 13.6% |
| O=C(COc1ccccc1)N1CCN(CC2CC=CCC2)CC1.O=C(O)C(=O)O (stereo not drawn) | -8.91% |
| CNS(=O)(=O)c1cccc(C(=O)OCCCC(=O)c2ccccc2)c1 | -10.3% |
| CS(=O)(=O)N1CCc2cc(S(=O)(=O)Nc3ccc4oc5c(c4c3)CCCC5)ccc21 | 4.48% |
| COc1ccc(N2CC(C(=O)NCCC3=CCCCC3)CC2=O)c(OC)c1 (stereo not drawn) | 7.9% |
| Cc1ccc(Nc2nnc(SCc3cc(=O)n4ccsc4n3)s2)c(C)c1 | 5.62% |
| O=C(/C(=C/O)N=Nc1cccc(C(F)(F)F)c1)c1ccccc1 | 12.4% |
| CCn1c(N2CCN(C(=S)NC)CC2)nc2ccccc21 | -9.88% |
| CC1(c2ccc(Cl)cc2)NC(=O)N(CC(=O)Nc2cccnc2Cl)C1=O (stereo not drawn) | 3.26% |
| CCOc1ccc(Br)cc1S(=O)(=O)Nc1cccc(S(=O)(=O)N(C)C)c1 | 1.93% |
| CC(c1ccccc1)n1c(Cn2ncc3ccccc3c2=O)n[nH]c1=S (stereo not drawn) | 1.65% |
| O=C(CSc1nncs1)NC(=O)Nc1ccc2c(c1)OCCO2 | -0.386% |
| O=C(COC(=O)/C=C/c1ccccc1)Nc1ccc(Cl)cn1 | 7.79% |
| CCn1c(=O)c(C(=O)Nn2c(C)nc3ccccc3c2=O)c(O)c2ccccc21 | 8.77% |
| Cc1c(-c2ccccc2)[n+](=O)c(-c2ccco2)c(C)n1[O-] | 12.2% |
| COC(=O)CCCCCCCCCC[N+]1(C)CCCCC1.[I-] | 0.673% |
| Cc1nc(N)c(C#N)c(-c2ccc3c(c2)OCO3)c1C | 17.7% |
| CCOC(=O)Nc1ccc2c(c1)nc1n2CCN(CCOC)C1 | 16.1% |
| COc1ccc(OC)c(N)c1.Cl | 17.5% |
| CCOc1ccc2cc(/C=C/C(=O)c3ccco3)c(Cl)nc2c1 | 14.5% |
| Cc1ccc(/C=C/C(=O)N2CCCC(C)C2)cc1 (stereo not drawn) | 11.5% |
| O=Nc1ccc(NOC(=O)c2ccccc2Br)cc1 | 9.81% |
| CC(=O)N(O)CCCCCNC(=O)CCC(=O)N(O)CCCCCNC(=O)CCC(=O)N(O)CCCCCN.CS(=O)(=O)O | 12.6% |

| Structure (SMILES) | hERG current change (%, negative = inhibition) at 1uM |
| --- | --- |
| CCC(CC)C(=O)c1c[nH]c(C(=O)NCc2ccccn2)c1 | 8.96% |
| O=C(NC1CCCC1)C(c1ccncc1)N(CCCN1CCOCC1)C(=O)c1ccc(-c2ccccc2)[nH]1 (stereo not drawn) | -4.48% |
| COc1cccc(NC(=O)CSCC(=O)Nc2ccccc2)c1 | 1.88% |
| O=C(NCc1ccc2c(c1)OCO2)c1ccc(CS(=O)(=O)Cc2cccc(Cl)c2)o1 | 11.3% |
| CCC(=O)Nc1c2c(nn1-c1ccc(C)cc1C)CSC2 | 12.8% |
| CCOc1ccc(-n2ccnc2)nn1 | 5.02% |
| O=C1/C(=C\c2ccc(Br)o2)SC(=Nc2ccccc2)N1c1ccccc1 | 4.22% |
| CCOC(=O)c1c(C)nc2cc(C)cc(C)n12 | 12.1% |
| CN1CCCC(C(O)(c2ccccc2)c2ccccc2)C1 (stereo not drawn) | 15% |
| CCOc1c(Br)cc(/C=C2\N=C(C)OC2=O)cc1Br | 11.1% |
| CCc1cccc(CC)c1-n1c(SCC(=O)c2c(N)n(C)c(=O)n(C)c2=O)nnc1-c1cccnc1 | 0.941% |
| CCC(C)(C)n1nnnc1C(c1ccc(F)cc1)N1CCN(C(=O)c2ccco2)CC1 (stereo not drawn) | 2.55% |
| COc1cccc(C(C(=O)NC2CCCCC2)N(C(=O)c2ccccn2)c2cccnc2)c1 (stereo not drawn) | 12.5% |
| O=C(CNC(=O)c1[nH]cnc1C(=O)N[C@@H](Cc1ccccc1)C(=O)OCc1ccccc1)OCc1ccccc1 | 9.29% |
| O=C(/C=C/Nc1cccc([N+](=O)[O-])c1)c1cccs1 | 14.2% |
| CCNc1nc(NCC)nc(N/N=C/c2ccccc2)n1 | 14.6% |
| Cc1ccc(S(=O)(=O)N2CCN(C(=O)/C=C/c3ccco3)CC2)cc1 | -16.5% |
| O=C(NCC(=O)N1CCCC1)c1ccc(Br)cc1 | 16.7% |
| CCCc1cc(C(=O)Nc2ccc(Cl)cn2)cs1 | 9.72% |
| CCN(c1ccccc1)S(=O)(=O)c1csc(C(N)=O)c1 | 9.26% |
| COCCn1c(-c2ccc(OC)cc2)cnc1SCC(=O)Nc1cc(C)on1 | 9.78% |
| COCCn1c(COc2cccc(OC)c2)nnc1SCC(=O)N1CCOCC1 | 8.23% |
| C[n+]1ccc(/C=C/c2ccccc2O)c2ccccc21.[I-] | 8.85% |

| Structure (SMILES) | hERG current change (%, negative = inhibition) at 1uM |
| --- | --- |
| COc1cccc(S(=O)(=O)Nc2cccc(C(=O)N3CCCCCC3)c2)c1 | 9.21% |
| C[C@H](NC(=O)NCc1cccs1)C(=O)O | 0.414% |
| COc1ccc(NC(=O)NCCc2cccc(Cl)c2)cc1OC | 11.2% |
| COc1c(C)cc(C(=O)C2CCCN(C(=O)c3cc(C)n(C)n3)C2)cc1C (stereo not drawn) | 7.96% |
| CN1CCC(N(C)S(=O)(=O)c2ccc(Cl)cc2)CC1 | 10.8% |
| COC(=O)/C(C#N)=C1/C=Cc2ccccc2N1C | 6% |
| O=C1/C(=C/c2ccsc2)N2CCC1CC2 | 8.86% |
| O=C(NCc1ccc2c(c1)OCO2)c1nc(Cn2cc(Br)cn2)no1 | 9% |
| CCN(CC)c1ccc(C(=O)OCC(=O)N2CCN(c3ccccc3)CC2)cc1 | 13.5% |
| CCCCCC(=O)Nc1cccc(C2=NOC3(C2)C[C@@H](C(N)=O)N(C(=O)CC(c2ccccc2)c2ccccc2)C3)c1 (stereo partly drawn) | 6.04% |
| CCOCCCNC(=O)/C(C#N)=C/c1ccc([N+](=O)[O-])o1 | 6.77% |
| COc1ccccc1C(NC(=O)CC(C)C)c1c(O)ccc2ccccc12 (stereo not drawn) | 17.6% |
| O=C(NCC(c1ccco1)N1CCN(c2ccc(F)cc2)CC1)c1ccco1 (stereo not drawn) | 1.06% |
| Cc1nc2c(C#N)c[nH]n2c(=O)c1Cc1ccccc1 | 7.14% |
| CC1=C(C(=O)N2CCOCC2)C(c2cccc(C)c2)NC(=S)N1 (stereo not drawn) | 8.36% |
| CN(C(=O)c1coc(=O)c2ccccc12)c1ccccc1Cl | -0.432% |
| CC(/C=N/N1C(=O)CSC1=S)=C\c1ccccc1 | 14.6% |
| Cc1cc(C)cc(N=Cc2ccc([N+](=O)[O-])s2)c1 | 9.42% |
| O=C(CN1CCN(S(=O)(=O)/C=C/c2ccccc2)CC1)NCC(F)(F)F | 0.919% |
| COc1ccc2nc(NC(C)=O)sc2c1 | -7% |
| CCCCC(=O)Nc1cc(OC)c(NC(=O)C2CCCCC2)cc1OC | 12.1% |
